{
  "source": "ChEMBL document CHEMBL4888484",
  "about": "“Replenishing the malaria drug discovery pipeline: Screening and hit evaluation of the MMV Hit Generation Library 1 (HGL1) against asexual blood stage Plasmodium falciparum ,using a nano luciferase reporter read-out” (2022)",
  "note": "Among all 150,000 compounds or so, about 540 (0.36%) showed an effect of 50% or more. Some of the results follow.",
  "data": [
    {"test_system": "Plasmodium falciparum", "assay": "Primary screen in NF54 nanoGlo assay, in single point, at 2uM, 72h; a lower Z score goes with more inhibition", "assay_type": "functional, Erythrocyte", "conditions": "timepoint 72 hour", "units": {"% Inhibition": "%"}, "values": [
      {"compound": "Cc1ccc(-c2cc(C(=O)NC(C)C)cc(S(=O)(=O)N3CCOCC3)c2)s1", "% Inhibition": -4, "Z score": 0.52},
      {"compound": "Cn1cc(C#N)c(=O)n(C[C@H](O)COCc2ccccc2)c1=O", "% Inhibition": -11, "Z score": 1.44},
      {"compound": "Cc1ccc([C@@H]2Cn3nnc(C(=O)N4CCC(C(=O)NCC5CC5)CC4)c3CO2)cc1", "% Inhibition": -13, "Z score": 1.22},
      {"compound": "CN(Cc1ncc[nH]1)C(=O)[C@@H]1COCCN1CC(F)(F)F", "% Inhibition": 3, "Z score": -0.36},
      {"compound": "Cc1cc(C)cc(-n2ncc3c(=O)n(C[C@H](O)COc4ccc(C)cc4C)cnc32)c1", "% Inhibition": -9, "Z score": 0.89},
      {"compound": "CC(C)(C)OC(=O)NC[C@H]1CC(C(=O)Nc2ccc(CNc3ccccc3)cc2)=NO1", "% Inhibition": 32, "Z score": -3.65},
      {"compound": "CCN(Cc1cc(OC)ccc1-n1cccn1)[C@H]1COC[C@@H]1O", "% Inhibition": -6, "Z score": 1.05},
      {"compound": "O=C(CCC(=O)N1CCOC[C@@H]1CC1CC1)N1CCC(O)CC1", "% Inhibition": 2, "Z score": -0.24},
      {"compound": "O=C(CN1CCc2c1cccc2C(F)(F)F)N1CCNC1=O", "% Inhibition": -6, "Z score": 0.55},
      {"compound": "O=C(c1ccc(F)cc1)N1CCCn2c1nc1ccccc12", "% Inhibition": -8, "Z score": 1.04},
      {"compound": "C[C@H]1Cc2ccccc2N1CCNC(=O)c1cccc(-n2ccnn2)c1", "% Inhibition": -15, "Z score": 1.52},
      {"compound": "O=C(CCCN1C(=O)c2cccnc2Oc2ccccc21)NCc1ccccc1Cl", "% Inhibition": -6, "Z score": 0.74},
      {"compound": "CCN(CCc1noc(C2CCC2)n1)C(C)=O", "% Inhibition": -3, "Z score": 0.3},
      {"compound": "Cc1ccc(S(=O)(=O)c2c(NC(=O)c3ccco3)n(C3CCCCC3)c3nc4ccccc4nc23)cc1", "% Inhibition": -11, "Z score": 1.85},
      {"compound": "CCNC(=O)c1ccc(S(=O)(=O)NOC)cc1", "% Inhibition": 2, "Z score": -0.23},
      {"compound": "CCc1cc(N2CC(N(C)C)C2)nc(C)n1", "% Inhibition": -7, "Z score": 1.06},
      {"compound": "COC1(CNC(=O)c2cnn(CC(F)(F)F)c2)CCCCC1", "% Inhibition": -5, "Z score": 0.46},
      {"compound": "CCOC(=O)c1cn(Cc2cccc(F)c2)c2nc(C)ccc2c1=O", "% Inhibition": -18, "Z score": 1.92},
      {"compound": "O=c1[nH]c2ccccc2n2c(-c3ccc(Cl)cc3Cl)nnc12", "% Inhibition": -44, "Z score": 5.18},
      {"compound": "Cc1ccc(C2CC2C(=O)N2CCCN(CC(N)=O)CC2)cc1C", "note": "(centres undefined)", "% Inhibition": -10, "Z score": 1.89},
      {"compound": "COc1ccc(-c2cc3n(n2)CCC(=O)N3Cc2ccc(C(=O)NCCCN3CCCC3)cc2)cc1", "% Inhibition": 17, "Z score": -2},
      {"compound": "C[C@@]1(C(=O)NCc2ccccc2)CCC(=O)N1Cc1cccc(Cl)c1", "% Inhibition": -14, "Z score": 1.56},
      {"compound": "CN(C)S(=O)(=O)c1cccc(C(=O)NC2(c3ccc(Br)cc3)CCCC2)c1", "% Inhibition": -19, "Z score": 2.51},
      {"compound": "CCOc1ccccc1CNC(=O)[C@@H]1CCCCCN1C", "% Inhibition": -12, "Z score": 2.08},
      {"compound": "CNC(=O)C1CCN(CC(=O)N(Cc2ccccc2)c2nc3c(C)c(C)ccc3s2)CC1", "% Inhibition": 6, "Z score": -0.82},
      {"compound": "Cc1cccc(N2CCN3C(=O)NC[C@H]3C2)n1", "% Inhibition": 14, "Z score": -1.63},
      {"compound": "CC(C)c1cncnc1N1CC[C@H]2[C@H](CCC(=O)N2CCc2cccs2)C1", "% Inhibition": -6, "Z score": 0.97},
      {"compound": "O=C(c1ccc2[nH]cnc2c1)N1CC(c2nc(-c3cccs3)no2)C1", "% Inhibition": -7, "Z score": 1.33},
      {"compound": "CCC(=O)N(C)C1CCC(NC(=O)OC(C)(C)C)CC1", "note": "(centres undefined)", "% Inhibition": -6, "Z score": 0.52},
      {"compound": "CCn1cc(CN2C[C@@H]3CC[C@H]2CN(C2Cc4ccccc4C2)C3)cn1", "% Inhibition": 2, "Z score": -0.33},
      {"compound": "Cc1nnc(CN(CC(=O)NC[C@H]2CCCO2)C(C)(C)C)o1", "% Inhibition": 28, "Z score": -3.71},
      {"compound": "CCn1c(-c2cccc(OC)c2)nc2cc(NC(C)=O)cc(C(=O)N3CC4CCCC3C4)c21", "note": "(centres undefined)", "% Inhibition": -5, "Z score": 0.85},
      {"compound": "COC(=O)CCn1cc(CN[C@H]2CC(=O)N(c3ccccc3)C2)cn1", "% Inhibition": -6, "Z score": 0.9},
      {"compound": "C[C@]1(NCc2cc3cc(Cl)cnc3o2)CCCOC1", "% Inhibition": -3, "Z score": 0.49},
      {"compound": "COc1cc(/N=C(\\NC[C@H]2CCCO2)NC(=O)c2cccc(OC)c2)cc(OC)c1", "% Inhibition": -24, "Z score": 2.24},
      {"compound": "CCN(C(=O)C1CC2C=CC1C2)C1CC(=O)NC1=O", "note": "(centres undefined)", "% Inhibition": -8, "Z score": 1.34},
      {"compound": "O=C(NCc1ccc(F)cc1)c1coc(CN(Cc2ccc(C(F)(F)F)cc2)Cc2ccc3c(c2)OCO3)n1", "% Inhibition": -6, "Z score": 0.84},
      {"compound": "COc1ccc(C2CN(Cc3ccc(C(F)(F)F)cc3)CC2CN(Cc2ccc(F)cc2)C(C)=O)cc1", "note": "(centres undefined)", "% Inhibition": -14, "Z score": 1.75},
      {"compound": "O=C(NCCc1ccc(Cl)s1)NC[C@H]1CCOC1", "% Inhibition": 0, "Z score": 0.01},
      {"compound": "O=C(CN1CCOCC1)N1CCc2nocc2C1", "% Inhibition": 3, "Z score": -0.44},
      {"compound": "CC(C(=O)NCC1(C)CCC(=O)N1)C1CCC1", "note": "(centres undefined)", "% Inhibition": 0, "Z score": -0.01},
      {"compound": "c1cn(-c2ccc(OC34CCCN(CC3)C4)cc2)cn1", "note": "(centres undefined)", "% Inhibition": 1, "Z score": -0.26}
    ]}
  ]
}
